Measurements as given in PubChem BioAssay AID743279 (National Center for Advancing Translational Sciences (NCATS), 2014).
The campaign covered roughly 360,000 compounds. About 17,000 (4.7%) were called active. The inconclusive results got no clear call from the source; some entries with a clear call stand among them for comparison. Cut-off read from the data, not from the text of the source: active = activity change below about -50%; inconclusive = mostly about -30% to -49%; inactive = weaker than that.

Test: qHTS for Inhibitors of Inflammasome Signaling: IL-1-beta AlphaLISA Primary Screen
Conditions: THP-1 LPS/ATP IL-1B secretion, 16 h; at 57.5 µM, active compounds read low
In short: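 THP-1 cells pretreated 1 hr with compounds (up to 57.5 uM final), then stimulated with LPS (250 ng/mL final) plus ATP (1.25 mM final); secreted IL-1B measured by AlphaLISA after 16 hr, decreased signal indicating inhibition.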
% is set by controls: 0 for no effect and ±100 for the full control effect.

SMILES | activity change
OCCn1c(CSc2nnc(-c3ccco3)n2-c2ccccc2)nc2ccc(Cl)cc21 | inconclusive: -41.7%
CC(C)(CNc1ccc(S(=O)(=O)C(F)(F)F)cc1[N+](=O)[O-])N1CCOCC1 | active: -53.1%
O=CNn1cnc2c(oc3nc(-c4ccccc4)cc(-c4ccco4)c32)c1=O | inconclusive: -36.1%
CCCCc1nc(NCCN)c(C#N)c2c1CSC(C)(C)C2 | inconclusive: -44.7%
CCc1nnc(NC(=O)C(=O)NCCOC(=O)c2ccccc2Cl)s1 | inactive: 18.8%
c1cc(CSc2nnc(-c3ccc4c(c3)OCO4)o2)ccn1 | inactive: -6.66%
CCOC(=O)C=C(OC(=O)c1ccc(OC)cc1)c1ccccc1 | inconclusive: -35.2%
Cc1c(NC(=O)/C(C#N)=C/c2ccc(-c3ccccc3Cl)o2)c(=O)n(-c2ccccc2)n1C | active: -73%
O=c1ccc(-c2ccc(S(=O)(=O)NCc3cccc(Br)c3)s2)n[nH]1 | inconclusive: -34.5%
CC(C)Cn1c(SCC(=O)N2CCCc3ccccc32)nc2ccccc2c1=O | active: -65.6%
COc1ccc(Br)cc1CN(C)CC(=O)NCc1ccc(F)cc1 | inconclusive: -47.9%
CC(C)(C)c1ccc(C(=O)NCc2ccco2)cc1 | inconclusive: -44.7%
CC(C)(C)NC(=O)c1cccc(NC(=O)c2ccc(NC(=O)c3ccco3)cc2)c1 | active: -70.3%
CCOC(=O)C1(CCOc2ccccc2)CCN(Cc2ccc3c(c2)OCCO3)CC1 | active: -88.2%
COc1cccc(-c2cnc3c(NC=O)cc(-c4ccc(N5CCN(C)CC5)cc4)cn23)c1 | inactive: 74.9%
CC1(C)CC(=O)C2=C(C1)N1C(=C(C#N)C2c2ccc(Cl)cc2)N=C(N)c2ccccc21 (stereo not drawn) | inconclusive: -37.3%
CN(C(=O)CSc1nc(-c2ccccc2)cn1N)C(c1ccccc1)c1ccccc1 | inconclusive: -31.6%
CCOC(=O)C1CCN(S(=O)(=O)c2ccc3c(c2)CC(=O)N3)CC1 | inconclusive: -39.2%
CC(C)C(=O)Nc1nc2cc3c(cc2s1)OCCO3 | inactive: 3.91%
O=C(c1ccc(CSc2nc3ccncc3[nH]2)cc1)N1CCN(c2cccc(Cl)c2)CC1 | inconclusive: -44.3%
CCc1cccc(C)c1NC(=O)CSc1nc2ccncc2[nH]1 | inactive: 39.4%
Cc1ccc(-c2nnn(CC(=O)Nc3ccc4nn(-c5ccccc5)nc4c3)n2)o1 | inactive: -10.1%

SMILES | activity change
COc1ccc(NC(=O)C(=O)NCC2CCCN2S(=O)(=O)c2cc(C)ccc2C)cc1 (stereo not drawn) | inactive: -3.23%
COC(=O)c1c(NC(=O)/C=C/C(=O)O)sc(C)c1-c1ccc(C(C)C)cc1 | active: -101%
Cc1cc(C)c(Cn2cnc3ccccc32)c(C)c1 | inconclusive: -33.6%
Cc1nccc(-c2ccc3c(c2)OCO3)n1 | inconclusive: -47.8%
COc1ccc(N2C(=O)CSC23CCC(C(C)(C)C)CC3)cc1 (stereo not drawn) | inactive: -1.57%
COc1ccc(CSc2nnnn2-c2ccc(O)cc2)cc1F | active: -64.2%
Cc1ccc(N(CC(N)=O)C2SC(=O)NC2=O)cc1 (stereo not drawn) | inactive: -8.45%
O=C(NC1CCCC1)C(c1ccc(Cl)cc1)N(Cc1ccc(F)cc1)C(=O)CCl (stereo not drawn) | inconclusive: -36.6%
O=C(/C=C/c1ccc([N+](=O)[O-])cc1)NC1CC2CCC1C2 (stereo not drawn) | inconclusive: -44.3%
O=C(Cn1nc(-c2ccccc2)ccc1=O)N1CCOCC1 | inactive: 6.62%
CCOc1ccc(NCCC(=O)c2ccc3c(c2)OCO3)cc1 | inconclusive: -40.4%
COc1ccc(/C=C/C(=O)NCc2cnn(C)c2C)cc1COc1ccc(Br)cc1 | inconclusive: -33.3%
O=C(NNC(=O)c1ccccc1F)c1ccco1 | inactive: -0.436%
O=C1c2ccccc2NC(c2ccc(F)cc2)N1Cc1ccco1 (stereo not drawn) | inactive: -5.46%
CCOC(=O)Cn1nnc(-c2cc(OC)c(OC)c(OC)c2)n1 | inconclusive: -30%
Fc1cccc(Cc2c(-c3ccc(Cl)cc3)nc3ccc(Cl)cn23)c1 | inconclusive: -40%
O=C(Nc1ccc(N2CCOCC2)c(Cl)c1)c1cccnc1 | inactive: -15.4%
O=C(c1ccc2ccccc2c1)c1c[nH]cc1-c1ccccc1 | inconclusive: -33.2%
Cc1cc(Cl)c(OCCCNCc2ccccc2)c(Br)c1 | inconclusive: -32.1%
COc1cccc(NC(=O)c2ccc(-c3ccc([N+](=O)[O-])cc3)o2)c1 | inconclusive: -37.4%
COC[C@@H]1CCCN1c1ccc2c(c1)O[C@@H](COCc1ccccc1)CN([C@@H](C)c1ccccc1)S2(=O)=O | inactive: 41.3%
COc1ccc(OCCSc2nc(C)nc3ccccc23)cc1 | inconclusive: -44.9%

SMILES | activity change
COc1ccc([N+](=O)[O-])cc1NC(=O)C(C)OC(=O)CSC(C)C(=O)Nc1cc(C)on1 (stereo not drawn) | inactive: 7.79%
CCOC(=O)C(O)(CC(=O)c1ccc(Cl)cc1)C(=O)OCC | inconclusive: -41.7%
CC1(C)C(C=C(Cl)Cl)C1C(=O)Nc1ccc([N+](=O)[O-])cc1 (stereo not drawn) | active: -99.3%
O=C(Nc1ccccc1)OC1CCC2CC1CCC2OC(=O)Nc1ccccc1 (stereo not drawn) | inconclusive: -39%
O=C(Oc1ccc(F)cc1C(=O)/C=C/c1cccs1)c1cccc([N+](=O)[O-])c1 | inconclusive: -48.3%
COc1ccc(CCNC(=O)c2ccc(CS(=O)(=O)c3ccc(Cl)cc3)o2)cc1OC | inconclusive: -39.2%
CCCn1nc(C(=O)Nc2cccc(S(=O)(=O)N3CCOCC3)c2)c2ccccc2c1=O | inconclusive: -42.2%
COc1cc(O)c2c(=O)cc(-c3ccccc3)oc2c1 | inconclusive: -31%
O=C(NCc1nc2ccccc2[nH]1)c1cccs1 | inactive: 8.35%
COc1cc(C(C)=O)ccc1OCC(=O)Nc1ccccc1N1CCCCC1 | inconclusive: -39.7%
CC(C)(C)c1ccccc1NC(=O)c1cc(-c2ccncc2)nc2ccccc12 | inactive: -26.3%
CC(C)(C)c1ccc(CCC2OCC(CN3CCOCC3)O2)cc1 (stereo not drawn) | inconclusive: -38.2%
c1cc2ccc3ccc(-n4cnnn4)c4ccc(c1)c2c34 | inconclusive: -31.4%
COc1ccc(C(CNC(=O)c2oc3ccc(F)cc3c2C)N2CCCCC2)cc1 (stereo not drawn) | inconclusive: -34.5%
CC(Oc1ccc(C(C)(C)C)cc1)c1ccnc2nc(/N=C/N(C)C)nn12 (stereo not drawn) | inactive: -3.31%
Cc1cccc(-n2c(O)c(C=Nc3ccccc3)c3ccccc3c2=O)n1 | active: -65%
COC(=O)c1c(NC(=O)CCl)sc(C(=O)N2CCOCC2)c1C | active: -97.7%
O=C(CSc1nnc(-c2cccs2)n1Cc1ccccc1)NCc1ccc2c(c1)OCO2 | active: -60.6%
COCc1cc(C)nc(NC2CC(C)(C)NC(C)(C)C2)c1C#N | inconclusive: -34.3%
COc1ccccc1NC(=O)COc1ccc(C(=O)NCc2ccccc2)cc1OC | inconclusive: -44.2%
C=CCn1c(N)c(C(=O)OCC(C)C)c2nc3ccccc3nc21 | inconclusive: -32.6%
CN(C(=O)Nc1ccc(Cl)cc1Cl)[C@H]1c2cc(Br)ccc2OC[C@H]1CO | active: -72.6%

SMILES | activity change
CCNS(=O)(=O)c1ccc(NC(=O)c2cncc(Br)c2)cc1 | inconclusive: -42.5%
O=C(CCc1c[nH]c2ccccc12)NCCc1ccc(Cl)cc1 | inconclusive: -34.2%
CN=C1c2c(-c3ccccc3)c3cc(OC)ccc3n2CCN1C | inconclusive: -31.8%
COc1cc(C2c3[nH]c4ccccc4c3C[C@H]3C(=O)N(C4CC4)CC(=O)N23)ccc1OC(C)C (stereo partly drawn) | inconclusive: -32.6%
CNc1nc(NCCOc2ccccc2Cl)c2sccc2n1 | inconclusive: -39.9%
OC(COc1ccc(OCC(O)CN2CCN(Cc3ccccc3)CC2)cc1)CN1CCN(Cc2ccccc2)CC1 (stereo not drawn) | inconclusive: -44.5%
Cc1cc(Cl)ccc1NC(=S)NCc1ccccc1Cl | inactive: -5.49%
CN(CCOc1ccccc1)CC(=O)Nc1ccc(Cl)cc1[N+](=O)[O-] | inconclusive: -33%
C=CCNCCOc1ccc(C)cc1[N+](=O)[O-] | inactive: -20.8%
Cc1ccc(S(=O)(=O)Nc2cccc(C(=O)NCC3(N4CCCCC4)CCCCC3)c2)cc1F | inconclusive: -38.9%
O=C(NCC1OCCc2ccccc21)c1ccc(NC(=O)c2ccccc2Cl)cc1 (stereo not drawn) | active: -73.4%
Cn1nc(C(C)(C)C)cc1NC(=O)Nc1cc(Cl)cc(Cl)c1 | active: -98%
CC(=O)Nc1ccc(Nc2nc(-c3c(C)nc4ccccn34)cs2)cc1 | inconclusive: -46.2%
COc1cc(C2c3c([nH]c(=O)[nH]c3=O)Nc3ccc4ccccc4c32)cc(OC)c1OC (stereo not drawn) | active: -92.3%
Cc1ccccc1Nc1nc(N2CCOCC2)nc(N2CCOCC2)n1 | active: -55.4%
COc1ccccc1Nc1nnc(SCC(=O)Nc2nc(-c3ccc(F)cc3)cs2)s1 | inactive: 93.1%
COC(=O)c1ccccc1NC(=O)CSc1ccccc1 | inconclusive: -39.9%
Cn1cnnc1SC(C(=O)Nc1cc(Cl)cc(Cl)c1)c1ccccc1 (stereo not drawn) | inactive: -24.2%
CCOC(=O)C1CCCN(C(=O)c2ccc(S(=O)(=O)Nc3ccccc3OC)cc2)C1 (stereo not drawn) | inactive: 2.38%
Cc1ccc(NC2=NC(c3ccccc3)n3c(nc(C)cc3=O)N2)c(C)c1 (stereo not drawn) | active: -74.4%
COc1ccc(Br)c(Cn2c(C)c(C(=O)NCc3cccs3)sc2=O)c1 | inconclusive: -33.7%
O=C(C[C@H]1C/C=C\C[C@H](NC(=O)OCC2c3ccccc3-c3ccccc32)C(=O)OC[C@@H]2CCCN2C1=O)NCCO | inactive: 15%
